Test results as given in PubChem BioAssay AID1347417 (National Center for Advancing Translational Sciences (NCATS), 2020).
Values joined by “and” are separate entries in the source; they are usually repeats but may differ in a detail not shown here. Equal entries are not always repeated. Out of some 120,000 compounds screened, about 5,300 (4.4%) were called active. Inconclusive means that the source gave no clear call. Such entries were picked first, then a sample of the others. Calls come from the whole dose curve; as a rule, active = well fitted inhibition curve with a large enough effect; inconclusive = small, poorly fitted or top-dose-only effect; inactive = no such curve, though single readings can be large or run the other way. Potencies of inconclusive entries are doubtful fits and often do not repeat.

Test: qHTS Primary assay for Inhibitors of Plasmodium falciparum Dd2 growth in vitro; note: nearly all actives have a fitted effect of over 65% in size
Conditions: P. falciparum Dd2 growth, SYBR Green, 72 h; series mostly up to 28.9 µM
How it was run: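 Readout: SYBR Green fluorescence, 485 nm excitation, 535 nm emission, after ~16 h lysis at 37C. Before that, Dd2-infected red cells (2.5% hematocrit) grew 72 h with compound, 29 uM top final concentration.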
Potency is the fitted concentration of half-maximal effect; tags give direction and shape of the fitted curve.

For `COc1ccc(NC(=O)C2=C(C)C(=O)OC23CCN(C(C)C)CC3)cc1Cl`, which Potency is on record?
Its Potency is inconclusive: 10 µM [inhibitor, partial curve, poor fit].

With `CCc1ccc(C(=O)N2CCC(c3n[nH]c(=O)n3Cc3ccc(C)cc3)CC2)cc1` as the compound, how does the Potency read?
Its Potency is inconclusive: 14.1 µM [inhibitor, single point].

Which Potency does the source give for `N#Cc1ccccc1CN1CCNc2nc(CN3CCOCC3)n(Cc3ccccc3)c2C1=O` here?
The Potency was inconclusive: 11.2 µM [inhibitor, partial curve, poor fit].

Which Potency does the source give for `O=C(c1cccnc1OC1CCN(S(=O)(=O)c2ccccc2)C1)N1CCOCC1` (stereo not given) here?
The Potency was “inactive”.

With `CN(C)c1ccc(-c2nnc([C@H]3CCN(C4CCC4)C3)o2)cc1` as the compound, how does the Potency read?
Its Potency is inconclusive: 12.6 µM [inhibitor, single point].

Which Potency does the source give for `Cc1cnc(CCNC(=O)Nc2ccc3c(c2)OCCO3)n1Cc1ccc(F)cc1` here?
Its Potency is “inactive”.

For `CCN(CC)CCNC(=O)C1CCCN(Cc2ccncc2)CCC(=O)NCC1` (stereo not given), which Potency is on record?
Its Potency is “inactive”.

Which Potency does the source give for `Cc1cccc(OCC(=O)Nc2ccc3nc(Nc4cccc(C(F)(F)F)c4)cc(C)c3c2)c1` here?
The Potency was inconclusive: 3.98 µM [inhibitor, single point].

With `CN(C)C[C@H]1O[C@H](Cc2cc(-c3ccccc3)on2)CC[C@@H]1O` as the compound, how does the Potency read?
Its Potency is inconclusive: 12.6 µM [inhibitor, partial curve, poor fit].

For `Cc1ccc(CNC(=O)c2oc3ccc(S(=O)(=O)N4CCC(C)CC4)cc3c2C)cc1`, which Potency is on record?
Its Potency is inconclusive: 10 µM [inhibitor, single point].

Which Potency does the source give for `COc1ccc(-c2cc(N3CCN(C(=O)c4c[nH]c5ccccc45)CC3)n[nH]2)cc1` here?
Its Potency is inconclusive: 0.891 µM [inhibitor, full curve, poor fit].

With `CC(C)CN(C)C(=O)c1cc(-c2cnn(C(C)C)c2)nc2cc(F)ccc12` as the compound, how does the Potency read?
Its Potency is inconclusive: 10 µM [inhibitor, partial curve].

With `O=C1NCCCCCCN[C@H]2CCC[C@@H]12` as the compound, how does the Potency read?
The Potency was inconclusive: 5.01 µM [inhibitor, partial curve, poor fit].

Which Potency does the source give for `CC(C)(C)c1cnc([C@@H]2COCCN2CC2CC2)[nH]1` here?
Its Potency is inconclusive: 31.6 µM [inhibitor, partial curve, poor fit].

For `O=C(Cc1ccccc1)NCC1CN(Cc2cccc(Cl)c2)CC12CN(c1ccccc1)C2` (stereo not given), which Potency is on record?
Its Potency is inconclusive: 1.41 µM [inhibitor, partial curve].

Which Potency does the source give for `CC(C)(C)C(=O)N1CCOC[C@H]1c1ncc(-c2ccc(OC(F)(F)F)cc2)[nH]1` here?
Its Potency is inconclusive: 1.58 µM [inhibitor, partial curve, poor fit].

With `Cc1ccc(C(=O)NC2CC(C)(C)Cc3nc(N4CCOCC4)ncc32)cn1` (stereo not given) as the compound, how does the Potency read?
The Potency was “inactive”.

With `COc1ccc(-c2noc(Cn3c(=O)c4ccccc4n(CC(=O)Nc4cccc(C(F)(F)F)c4)c3=O)n2)cc1` as the compound, how does the Potency read?
The Potency was inconclusive: 17.8 µM [inhibitor, single point].

With `CC(=O)Oc1ccccc1C(=O)Nc1ccc2c(c1)CN(Cc1ccc(Cl)cc1)C(=O)C(C)O2` (stereo not given) as the compound, how does the Potency read?
The Potency was inconclusive: 2 µM [inhibitor, partial curve].

Which Potency does the source give for `COc1cccc(N2C(=O)NC(=NC3CCCC3)C23CCN([S+](=O)([O-])c2cccc(OC)c2)C3)c1` (stereo not given) here?
Its Potency is inconclusive: 7.94 µM [inhibitor, partial curve, poor fit].

With `COc1cc2c(cc1Oc1cccc(N(C)C)c1)NC(=O)C21CCN(c2cnccn2)CC1` as the compound, how does the Potency read?
Its Potency is active: 0.891 µM.

Which Potency does the source give for `O=C(NCc1cccs1)C1CCc2nc(N3CCN(C(=O)C4CCC4)CC3)sc2C1` (stereo not given) here?
The Potency was active: 5.01 µM.

Which Potency does the source give for `O=C1NCc2ccccc2CC12CCN(Cc1cccc(F)c1F)C2` (stereo not given) here?
The Potency was inconclusive: 8.91 µM [inhibitor, partial curve, poor fit].

With `Cc1ccccc1-c1ccc(COc2ccc3c(cnn3CCC(=O)O)c2)cc1` as the compound, how does the Potency read?
The Potency was inconclusive: 12.6 µM [inhibitor, single point].

Which Potency does the source give for `Cc1ccc(NC(=O)CN2C(=O)CSc3ccc(S(=O)(=O)N4CCCC4)cc32)c(C)c1` here?
The Potency was “inactive”.

Which Potency does the source give for `CCc1noc(-c2ccn3c(CNC(=O)CCc4ccccc4)nnc3c2)n1` here?
Its Potency is inconclusive: 17.8 µM [inhibitor, single point].

With `O=C(Nc1ccc2nc(SCC(=O)N3CCCc4ccccc43)sc2c1)c1cccc(Cl)c1` as the compound, how does the Potency read?
The Potency was inconclusive: 17.8 µM [inhibitor, single point].

For `COc1ccc(C)cc1NC(=O)CCC[C@@H]1[C@H]2CCCN3CCC[C@@H](CN1Cc1cccnc1)[C@@H]23`, which Potency is on record?
Its Potency is inconclusive: 1.78 µM [inhibitor, partial curve, poor fit].

For `COC(=O)[C@@H]1Cc2c([nH]c3ccccc23)[C@H]2C[C@@H](NCCCn3ccnc3)C[C@@H](c3ccccc3)N21`, which Potency is on record?
Its Potency is inconclusive: 2.51 µM [inhibitor, single point].

For `COc1ccc(OC)c(CCNc2nccn(-c3ccc(C)c(C)c3)c2=O)c1`, which Potency is on record?
The Potency was “inactive”.

For `CCOC(=O)c1ccc2c(c1)N(Cc1cccc(C(F)(F)F)c1)C(=O)c1ccccc1S2(=O)=O`, which Potency is on record?
The Potency was inconclusive: 10 µM [inhibitor, single point].

With `O=C(NCCCN1CCN(c2ccccc2)CC1)c1nnc(Cc2ccc(F)cc2)o1` as the compound, how does the Potency read?
The Potency was inconclusive: 10 µM [inhibitor, single point].

With `Nc1c(-c2nc(-c3ccccc3)cs2)c2ccccn2c1C(=O)c1ccc2c(c1)OCO2` as the compound, how does the Potency read?
Its Potency is inconclusive: 12.6 µM [inhibitor, single point].

With `CN(Cc1ccc(F)cc1)c1ccc2ncc(Nc3ccc(CCO)cc3)n2n1` as the compound, how does the Potency read?
Its Potency is inconclusive: 12.6 µM [inhibitor, single point].

For `Cn1cc(CN2C[C@@H](F)[C@@H](OCc3nc4ccccc4n3C)C2)c2ccccc21`, which Potency is on record?
Its Potency is inconclusive: 8.91 µM [inhibitor, partial curve, poor fit].

With `CC(C)CCN1CCC2(C1)NC(=O)c1ccccc1CO2` (stereo not given) as the compound, how does the Potency read?
The Potency was inconclusive: 31.6 µM [inhibitor, single point] and inconclusive: 4.47 µM [inhibitor, full curve, poor fit].

Which Potency does the source give for `COC(=O)[C@@H]1Cc2ncn(Cc3ccc(Cl)cc3)c2CN1S(=O)(=O)Cc1ccccc1` here?
The Potency was inconclusive: 12.6 µM [inhibitor, single point].

With `Cc1nc(-c2ccccc2Br)cc([C@H]2CN3CC[C@H]2C[C@@H]3CNC(=O)Nc2ccc(Cl)cc2)n1` as the compound, how does the Potency read?
The Potency was inconclusive: 17.8 µM [inhibitor, single point].

With `CCC(CC)C(=O)NC[C@H]1O[C@@H](CC(=O)NC(C)C)[C@H](O)[C@@H]1O` as the compound, how does the Potency read?
The Potency was “inactive”.

For `CCOC(=O)c1ccccc1Nc1cc(C)nc2nc(-c3ccco3)nn12`, which Potency is on record?
The Potency was active: 10 µM.

For `COCCN(C)C[C@@H]1CN(c2cc(C)c3ccc(SC)cc3n2)C[C@@H]1CO`, which Potency is on record?
The Potency was inconclusive: 8.91 µM [inhibitor, partial curve, poor fit].

Which Potency does the source give for `COc1ccc(CC(=O)N2CCC(c3n[nH]c(=O)n3Cc3ccc(OC)cc3)CC2)cc1` here?
The Potency was active: 12.6 µM.

With `COc1ccc(-c2cc3c(cn2)CN(Cc2cccnc2)CCN3)cc1F` as the compound, how does the Potency read?
Its Potency is inconclusive: 31.6 µM [inhibitor, single point].

For `Cc1cn2nc(C(=O)NCc3cccs3)cc2c(N2CCCC2)n1`, which Potency is on record?
Its Potency is inconclusive: 1.41 µM [inhibitor, partial curve, poor fit].

For `Cc1onc(-c2ccc(Br)cc2)c1C(=O)Nc1ccc(Br)cc1F`, which Potency is on record?
The Potency was inconclusive: 17.8 µM [inhibitor, single point].

With `COc1ccc(-n2c(SCC(=O)Nc3nnc(C)s3)nc3c([nH]c4ccccc43)c2=O)cc1` as the compound, how does the Potency read?
Its Potency is inconclusive: 10 µM [inhibitor, single point].

With `CCOC(=O)c1scc(-c2ccc(C)cc2)c1S(=O)(=O)Nc1cccc(CC)c1` as the compound, how does the Potency read?
Its Potency is inconclusive: 10 µM [inhibitor, single point].

For `Cc1ccc(-c2noc([C@@H]3C[C@H](NC(=O)COc4ccccc4)CN3C)n2)cc1`, which Potency is on record?
Its Potency is inconclusive: 31.6 µM [inhibitor, single point].

For `CC(=O)N[C@H]1C[C@@H](c2nc(-c3ccccc3)no2)N(C)C1`, which Potency is on record?
Its Potency is inconclusive: 11.2 µM [inhibitor, partial curve, poor fit].

With `Cn1nnnc1SCCNCc1ccccc1OCc1ccc(Cl)cc1Cl` as the compound, how does the Potency read?
Its Potency is inconclusive: 14.1 µM [inhibitor, partial curve, poor fit].

For `Cc1ccc(C2(O)CCN(C(=O)c3cc4c(s3)CCCC4)CC2)nc1`, which Potency is on record?
The Potency was “inactive”.

For `CN(C)C[C@H]1C[C@@H](CO)CN(C(=O)CN2CCC(c3ccccc3)CC2)C1`, which Potency is on record?
Its Potency is “inactive”.

For `Cc1cnc(CC2CCN(S(=O)(=O)c3cccs3)C2)n1CC1CC1` (stereo not given), which Potency is on record?
Its Potency is inconclusive: 3.98 µM [inhibitor, single point].

For `CCOCCCNC(=O)Nc1cc(C(=O)NCc2ccc(C(C)C)cc2)ccc1N1CCCC1`, which Potency is on record?
Its Potency is “inactive”.

With `COc1ccc(-n2c(C)nc3cc(C(=O)NC4CCCC4)ccc32)cc1` as the compound, how does the Potency read?
The Potency was inconclusive: 10 µM [inhibitor, partial curve].

With `CCCc1noc(-c2ccn3c(CNC(=O)C(C)Oc4ccccc4)nnc3c2)n1` (stereo not given) as the compound, how does the Potency read?
The Potency was inconclusive: 0.126 µM [inhibitor, full curve].

With `COc1cc([C@@H]2C[C@H](NC(C)=O)C[C@H](Cc3ccccc3)O2)cc(OC)c1O` as the compound, how does the Potency read?
Its Potency is “inactive”.

Which Potency does the source give for `Cc1ccc(C(=O)N[C@H]2C[C@@H](c3nc(Cc4ccccc4)no3)N(C)C2)cc1` here?
The Potency was inconclusive: 11.2 µM [inhibitor, partial curve].

For `CCCCc1nn2c(=O)cc(COC(=O)c3cccc(NC(=O)c4cccc(C)c4)c3)nc2s1`, which Potency is on record?
The Potency was inconclusive: 11.2 µM [inhibitor, partial curve, poor fit].

With `CN(C)C[C@@H]1CN(C)C[C@H]1NS(=O)(=O)c1ccc(C(F)(F)F)cc1` as the compound, how does the Potency read?
The Potency was inconclusive: 1.26 µM [inhibitor, partial curve, poor fit].
